Laboratory results published in the supplement of paper PMC3334620.
In all, about 33,000 sequences were measured (“E-score (-0.5 to 0.5)”: median about -0.01, highest 2% from about 0.26 on). The list shows a part of the results.

Each sequence was assayed against Ste12 (UniProt P13574) (assay: PBM E-score (8-mer binding enrichment) (E-score (-0.5 to 0.5)); higher = stronger / more preferred TF binding; most listed sequences are background and not binding sites). Details: protein concentration: 200 nM; construct: GST-DNA-binding domain.
Summary of the method: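 Each ungapped eight-base word and its reverse complement, pooled, received an E-score from the Universal PBM Analysis Suite. Underlying scans, normalised with masliner, recorded fluorescent anti-GST bound to GST-tagged yeast transcription factors. These were applied at about 100-200 nM to universal all-10-mer Agilent arrays double-stranded by primer extension.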

Sequence	PBM E-score
AGAAAAAG	0.0364
GAAGGCCC	-0.226
CCTTCCCG	-0.123
GCGGGGAA	0.261
CGGGCCGA	-0.106
GGTTGTAA	0.0372
CCGAATGC	-0.0533
TCCTAGCA	-0.0629
TTCAAGAA	0.247
CCGTATAG	-0.0653
GTCTTTAA	-0.101
CCAGTACG	-0.0825
GCAGAAGA	0.0527
AGACATAA	0.101
CTACGTGC	-0.0642
ATTTTATG	0.248
AGTTAAGG	-0.0479
ATCGCGGG	0.0283
AGTCTGAG	-0.0101
CTATTTAA	0.194
ACTGCTCG	0.0382
TAGGAATA	0.00692
ACATAGCA	-0.115
CCTTCTGC	-0.143
AATTTGTA	0.217

Sequence	PBM E-score
TAGCTCGA	0.101
CTGATGGC	0.0625
ATTGTTAG	0.0697
GTATTCTA	0.149
AATTCGCG	0.0619
AGGATAAA	0.138
ACCAACGC	-0.0766
AGGAAACA	0.19
ACAACATA	0.0632
AATCAGCA	-0.0253
GACGACCA	-0.0719
GGCATCAA	-0.137
CAAATAGG	0.187
CTGCTCAC	-0.157
GAACTGTA	0.118
CTGTCAAC	-0.085
ACACGACC	-0.0235
GTAGTGCA	-0.0696
AGACTTGG	-0.11
CCATCACG	-0.0498
GCAGAACC	-0.151
CAAATTCG	0.124
TCAAAAGA	0.202
GCCGGTAA	-0.00694
CCGGCCTC	-0.00735

Sequence	PBM E-score
CATCTCGA	0.00363
AACTAACT	-0.0673
ATAGTTCC	0.154
ACCTGCGA	-0.0253
GTCTTACA	0.00293
ACAGCTTC	-0.063
GTGGCTGA	0.0345
GTAGGGAA	-0.0505
GATTCACA	0.0531
AAAACCTG	0.0562
GTCTCAAA	0.218
CAAAACCA	0.194
GAATCTTA	0.0953
ATAAGTGC	-0.189
CTCAAAAC	0.223
CCCTCGTC	0.0917
CGTCCTGA	-0.153
CAAACCTC	-0.105
CGGGATGA	0.00463
CAGTTTAG	0.0854
CTATTATC	0.126
AACGCTCA	0.00242
CCACTTAG	-0.179
CCTGCCCC	-0.0671
GACTCAAA	-0.0364

Sequence	PBM E-score
CTCTAAGA	0.0762
GATGAGTA	0.0183
CAGCGTCC	-0.0696
CAATCTGC	-0.0823
ATTCCGGC	-0.00497
CAAACACC	0.121
CATCTATA	0.0719
CCGCCCGG	-0.0452
GAGCAGTA	0.112
GCCTCAGC	-0.226
AATTATGC	0.187
AACGGTAC	0.0025
CTACTTTA	0.0872
CTCGTGTC	-0.0304
TGAGTCAA	0.0095
AGCCAGCA	-0.197
GCATTCGC	-0.276
AATGATCA	0.0798
CTCTACAG	-0.0448
CAGTTCTA	0.00621
AAGATTCT	-0.15
GGATGTAC	-0.226
GTTCACGA	-0.084
AAACGCGG	0.264
ATGGCTAA	-0.0443

Sequence	PBM E-score
ATAGCTAA	-0.0818
CCGCCGAC	-0.0352
GCAAATGC	-0.232
ATCGAATC	0.125
AATTAGGT	0.0624
CGGACGTA	-0.00701
CGTTAGTC	-0.149
ATCTCCCG	-0.0525
ACTAGGAA	-0.00085
AGCGACCA	-0.0697
CTCTGAAA	0.294
ATTAAGCC	-0.0447
AAGAGAGA	0.0604
GCCGGTAC	-0.13
GTATACAA	0.0647
GCGCATCC	-0.168
CCATTGGG	-0.159
GGCAGTAC	-0.259
ATTTCAAG	0.0717
GTACGGGA	-0.0885
AATCTCAC	-0.0196
ACATGTCC	-0.12
AAAAGCTT	0.124
CAGTACAA	-0.0966
CAGTGATA	-0.136

Sequence	PBM E-score
AATTTAAG	0.191
AATTCCAG	0.17
CATCCTCA	0.0342
ACGCCCTC	-0.035
ATTGGCTC	0.00068
CGAAGGTC	-0.0868
ATCGGGGG	-0.119
GACAAAAA	0.227
CGTTGCGC	-0.0144
GAATACAA	0.0373
AGCGAAAT	-0.0364
GCGAAAGA	-0.0959
CATTCCCG	0.195
ACTGTTCT	0.0329
CATTAACC	0.111
ATCAGTCG	0.0503
CCTACGTC	-0.16
ATGAATTA	0.0756
AAAACCAA	0.209
ATTCACTC	0.115
GTGTCAAA	0.169
AAAGGCCG	-0.0431
ACGAGACA	0.0298
ATACTTGG	-0.0285
GGGGAGTA	-0.00925

Sequence	PBM E-score
AATGGGTG	-0.0712
ATCTATGG	0.0194
CCGGTCCA	-0.206
AGCTTAGG	-0.055
ACCTAGAC	-0.17
CAGGTCCG	-0.107
AGTAGGAA	-0.0126
CGGGGGAA	0.0885
AGTAGGTC	-0.0912
AGGTCCCA	-0.0308
CCAGGTGC	0.0656
GGTGTGCA	-0.167
GTGAACCA	-0.00429
TACTCCTA	-0.266
CACGTTTA	-0.00355
CTCACCTA	0.0644
CTCCAAAC	0.127
CTAGTTCC	0.195
CGACGCCA	0.0868
AGTGTCCA	-0.0991
AATTGTAG	0.057
CCGCGAAG	0.0504
AAAAGCGG	-0.0462
GAGAGTCC	-0.218
CTTTATGA	-0.0114

Sequence	PBM E-score
ACCTCGAT	-0.0751
AAGACAGG	0.0129
AAATAAAG	0.172
TCACTAAA	0.161
AGCACAGG	-0.149
CGACTAAA	-0.0822
ATCACGAA	0.156
TCCGCGAA	0.106
AGAACTGC	-0.131
GACAGTTA	0.0282
AGATCACG	-0.0999
CTCGACCA	-0.173
AACTATAG	0.0196
GGTGCACC	-0.107
CAGAATCA	0.075
CATCATCC	0.0337
AATGTACA	0.112
CCTAGTAA	0.0288
CCATGCGC	-0.153
AATTGGAC	0.0593
ACGCAGTC	-0.237
GGCTACGA	-0.141
AGGACCCA	-0.203
CACGCCTC	-0.0775
CCGAGGCA	0.0971

Sequence	PBM E-score
ATTGCTCG	0.0147
CCGTCTAC	0.0342
CTTTCAAA	0.246
ACCTGACT	0.0963
AAACGGAT	0.265
GCACTTAA	0.0284
GCCGAATA	0.0561
CCGTGAAG	-0.185
GTCATAGA	0.151
ATTGGTGG	0.035
ACGTACAT	-0.0117
GCAGTCCC	-0.0962
GGGGTGAA	0.0185
CTTAATCC	0.00134
CATCGGTA	-0.00861
GTTCTTAA	0.053
CTTTCTGC	0.0703
AGCCACAA	0.0574
AAGTCACG	0.0198
